# The campaign covered roughly 110,000 compounds. About 230 (0.21%) showed an effect of 50% or more. Some of the results follow.
# Target: DPAP1 (Plasmodium falciparum, UniProt Q8IIJ9)
# Test: primary screen, percent inhibition; read by cleavage of a fluorogenic dipeptide substrate; higher = more effect of the substance
# Set-up: species or system P. falciparum D10 trophozoite lysates; single well
# 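Also: 30 min substrate incubation versus DMSO and 10 µM JCP410 controls.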
# DPAP1, sequence (Q8IIJ9 whole entry, looked up): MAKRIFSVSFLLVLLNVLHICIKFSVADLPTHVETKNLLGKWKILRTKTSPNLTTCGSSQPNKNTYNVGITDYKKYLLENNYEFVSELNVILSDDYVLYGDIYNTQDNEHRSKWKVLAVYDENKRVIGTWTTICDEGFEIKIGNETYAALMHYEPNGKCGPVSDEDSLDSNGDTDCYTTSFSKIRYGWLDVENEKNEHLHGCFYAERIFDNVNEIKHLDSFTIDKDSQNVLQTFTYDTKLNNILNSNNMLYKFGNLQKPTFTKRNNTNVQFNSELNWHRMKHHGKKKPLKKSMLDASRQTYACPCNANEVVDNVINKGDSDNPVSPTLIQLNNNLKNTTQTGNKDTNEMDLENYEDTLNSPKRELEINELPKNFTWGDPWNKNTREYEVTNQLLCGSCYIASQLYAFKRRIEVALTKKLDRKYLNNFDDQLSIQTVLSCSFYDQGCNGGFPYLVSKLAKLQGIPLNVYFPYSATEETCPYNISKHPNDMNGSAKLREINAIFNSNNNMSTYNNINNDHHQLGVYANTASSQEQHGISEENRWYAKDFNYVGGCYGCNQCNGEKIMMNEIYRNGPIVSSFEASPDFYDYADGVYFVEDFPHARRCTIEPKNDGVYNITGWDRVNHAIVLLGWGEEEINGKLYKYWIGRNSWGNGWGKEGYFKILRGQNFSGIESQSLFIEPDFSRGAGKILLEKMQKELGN
row,SMILES,% Inhibition @ 10 uM [%]
1,Cc1cc[n+](CC(=O)N2CCCCC2)cc1,3.72
2,CCOc1cccc(CN2C[C@@H]3C[C@H](C2)c2cccc(=O)n2C3)c1O,-0.13
3,CC(C(=O)Nc1ccccc1C#N)N1C(=O)c2ccccc2C1=O (stereo not drawn),-6.22
4,CC1CCCCN1CCNc1ccc2nnc(-c3ccc(F)cc3)n2n1 (stereo not drawn),3.45
5,Cc1cc2nc(COc3ccc(C(C)(C)C)cc3)cc(=O)n2o1,4.28
6,CN(Cc1ccccc1)S(=O)(=O)c1ccc2c(c1)OCCO2,-2.17
7,COc1c(Cl)cnn(-c2ccc(Cl)c(C(F)(F)F)c2)c1=O,-0.636
8,CCN(C(=O)COc1ccc(Br)cc1)c1ccccc1,0.795
9,Cc1ccc(-c2cc(C(=O)NCc3ccc4c(c3)OCO4)c3ccccc3n2)s1,-1.1
10,CCN(CC)CCNC(=O)c1cc(OC)c(OC)c(OC)c1,-2.6
11,CCOC(=O)c1cnc(SCC(=O)c2ccccc2)nc1N,-3.52
12,COc1cc2c(c(OC)c1OC)CC(=O)N(C)CC2,1.67
13,COc1cc(CNCCO)cc(Cl)c1OCc1ccc(Cl)cc1,-5.31
14,COc1ccc(C2C(C#N)=C(N)Oc3c2c(C)nn3-c2ccc(C)cc2)cc1 (stereo not drawn),-2.54
15,CC1=C(C(=O)OC2CCCCC2)C(c2cccc(F)c2)C2=C(O)CC(C)(C)CC2=N1 (stereo not drawn),4.38
16,Cc1cccn2c(=O)c(/C=C(\C#N)C(N)=O)c(Oc3ccccc3F)nc12,-1.43
17,CC(Oc1ccc(C(C)(C)C)cc1)C(=O)Nc1ccc2c(c1)OCCO2 (stereo not drawn),7.82
18,CC1CCCC(N2CNc3nc4ccccc4n3C2)C1C (stereo not drawn),2.1
19,Cn1cccc1CNCc1ccc(F)cc1,-5.4
20,CC[C@H](C)[C@H](NC(=O)c1cccc(C(N)=O)c1)C(=O)N[C@@H](CCc1ccccc1)C(=O)COCc1ccccc1,-9.15
21,CCCCC(=O)Nc1c(C(=O)c2ccc(F)cc2)oc2ccccc12,-2.91
22,COCCNC(=O)c1cnn2c1NC(c1ccc(F)cc1)CC2C(F)(F)F (stereo not drawn),-5.07
23,COc1ccc(C2N(C(=O)c3ccccc3)CCN2C(=O)c2ccc(C)cc2)cc1 (stereo not drawn),-5.63
24,CC(Sc1nc2c(c(=O)n(C)c(=O)n2C)n1Cc1cccc(C(F)(F)F)c1)C(=O)O (stereo not drawn),15.4
25,CC1CCCCN1CCCNC(=O)Cn1ncc2c3ccccc3n(Cc3ccc(F)cc3)c2c1=O (stereo not drawn),-3.35

row,SMILES,% Inhibition @ 10 uM [%]
1,C=CCOc1cccc(C2c3c(oc4ccc(C)cc4c3=O)C(=O)N2CCOC)c1 (stereo not drawn),2.31
2,COc1cc(NC(=O)Cc2ccc(OC)c(OC)c2)c2ncccc2c1,1.62
3,COc1cccc(C(=O)Nc2nc3c(Cl)cccc3s2)c1OC,2.17
4,CC1(C)CC(O)=C(C(=O)c2ccccc2)/C(=N/CCc2nc3ccccc3[nH]2)C1,-2.19
5,CC(C)CNC(=O)C(=O)Nc1ccc(Cl)c(Cl)c1,1.29
6,CCOC(=O)c1[nH]c(C)c(C(=O)c2ccc(C)cc2)c1C,2.54
7,COc1cc(OC)c(/C=C2\C(=O)NC(=O)N(C)C2=O)c(OC)c1,-2.48
8,O=C(c1nc(SCc2ccc(F)cc2)ncc1Cl)N1CCN(Cc2ccccc2)CC1,4
9,COc1ccc(S(N)(=O)=O)cc1-c1nnc2c3ccccc3c(C)nn12,3.93
10,COc1ccc(-c2nnc(SCC(=O)O)n2C)cc1,0.503
11,CCOc1cc(CN2CCN(c3ccccc3F)CC2)ccc1O,-1.98
12,Cc1cc(NC(=O)c2cccc(S(=O)(=O)N3CC(c4ccccc4)CC3=O)c2)no1 (stereo not drawn),-0.834
13,COc1ccccc1C1C2=C(O)CC(C)(C)CC2=NC(C)=C1C(=O)Nc1ccc(F)cc1 (stereo not drawn),2.51
14,O=C(CSc1ncnc2c1sc1ccccc12)NC1CCCCC1,4.47
15,CCCCn1c(=O)c(C(=O)Nc2nccs2)c(O)c2ccccc21,-4.48
16,COCCNC(=O)c1csc2c1CCCC2,-1.44
17,CC1=C(C)CC(C(=O)NCCCCc2ccccc2)C(C(=O)O)C1 (stereo not drawn),-4.77
18,CC(C)c1ccc(C2C(C#N)=C(N)Oc3cc(O)ccc32)cc1 (stereo not drawn),9.92
19,CCCNC(=O)C1CSC2(CCN(C)CC2)N1C(=O)CC (stereo not drawn),-3.62
20,CCCN1CCC(N(CCC)CC2CC2)CC1,-3.6
21,COCC(C)NC1CCCCCCC1 (stereo not drawn),-1.81
22,COc1ccccc1CNCc1c(C(=O)O)n(Cc2ccc(F)cc2)c2cc(C)ccc12,3.9
23,O=C1NC(=O)C(=Cc2ccc(Sc3ccc(Cl)cc3)o2)C(=O)N1,4.86
24,COc1ccc(CC2(CN3CCCCC3)C(=O)N(C)C(=O)N(C)C2=O)cc1OC,0.503
25,Cc1nnc(SCC(=O)NCCN2CCCCCC2)c2nn(-c3ccccc3)c(C)c12,-4.94

row,SMILES,% Inhibition @ 10 uM [%]
1,Brc1ccc(-c2nc(-c3ccccc3)cc(N3CCOCC3)n2)cc1,2.65
2,CC1CCN(CCCNC(=O)CN2N=C(c3ccccc3)CCC2=O)CC1,-1.21
3,CC(C)(C)C(=O)NC1(C(F)(F)F)NC(=O)N(Cc2ccccc2)C1=O (stereo not drawn),0.0451
4,O=C(c1ccccc1Br)N(C1CCCCC1)C1CCCCC1,2.23
5,Cc1cc(N)n(-c2ncnc3scc(-c4ccc(Cl)cc4)c23)n1,-6.17
6,COc1cc(C2c3c(oc4ccccc4c3=O)C(=O)N2c2nc(C)c(C)s2)cc(OC)c1OC (stereo not drawn),0.189
7,COc1ccc(-c2nonc2NC(=O)c2cc(OC)c(OC)c(OC)c2)cc1,2.29
8,CCCCNC(=O)c1cc2c(=O)n3cccc(C)c3nc2n1C,-3.41
9,CCOc1ccc(CCNC(=O)Cn2c(-c3ccc(F)cc3)cc(C(C)=O)c2C)cc1OCC,-0.176
10,COc1ccc(-c2cc(C(F)(F)F)n3nc(C(=O)NCC4CCCO4)c(Cl)c3n2)cc1OC (stereo not drawn),-0.413
11,CCOC(=O)c1cc(C)n(Cc2ccc(OCC)c(OC)c2)c1C,3.47
12,CN(c1ccccc1)c1nc(=O)c2sc3ccccc3c2s1,0.215
13,Cc1ccc(NC(=O)c2ccc(Cn3nc(C)c(Br)c3C)o2)cc1F,4.84
14,CC(C)(C)OC(=O)N[C@@H](Cc1cc(I)c(O)c(I)c1)C(=O)NCC#N,4.63
15,COc1cccc(OC)c1C(=O)Nc1ccc(Cl)c(Cl)c1,3.1
16,COc1ccc(S(=O)(=O)Cc2ccc(C(=O)NCc3cccnc3)o2)cc1,2.14
17,Cc1ccc(S(=O)(=O)N(C)C)cc1NC(=O)C12CCC(C)(C(=O)C1=O)C2(C)C (stereo not drawn),-10.7
18,CSc1nc2ccccc2n1CC(=O)Nc1ccccc1,-1.64
19,O=C(CC1Sc2ccccc2NC1=O)Nc1cccnc1 (stereo not drawn),-6.02
20,c1ccc(CN2CCC(Nc3nc4ccccc4n4nnnc34)CC2)cc1,1.15
21,COc1ccc(-c2nc3ccccc3o2)cc1N,6.86
22,COc1cccc(C(=O)Nc2nc(-c3nnn(-c4ccccc4C)c3C)ns2)c1,-0.835
23,Cc1oc(-c2ccc(Cl)cc2)nc1CN1CCC(C(=O)NCCCN2CCCC2=O)CC1,2.37
24,COc1ccc(C2(C(=O)NCCc3ccc(OC)c(OC)c3)CCOCC2)cc1,-0.958
25,O=C(c1ccccc1)c1cc(Cl)ccc1NC(=O)C(F)(F)F,-0.303

row,SMILES,% Inhibition @ 10 uM [%]
1,Cc1c(Cl)cccc1-c1ccc(CNCCSc2nnnn2C)o1,-7.24
2,CCN(Cc1ccccc1)S(=O)(=O)c1ccc2oc(C(=O)O)c(C)c2c1,-2.26
3,CCCc1nc2c(o1)CC(CC(C)SCC)CC2=O (stereo not drawn),2.4
4,CC1CCCC(NC(=O)C2c3ccccc3C(=O)N2CCc2ccccc2)C1C (stereo not drawn),2.93
5,COc1ccc(CCNC(=O)c2sc3nc4n(c(=O)c3c2C)CCCC4)c(OC)c1,-0.205
6,Cc1ccc(C)c(CN2CCN(c3cccc(Cl)c3)CC2)c1,-4.61
7,Cc1n[nH]c(C)c1CCCOc1ccccc1Cl,-2.12
8,CCCCOC(=O)c1ccc(NC(=O)c2ccc([N+](=O)[O-])cc2)cc1,-5.51
9,Cc1ccc(-c2cc(C(F)F)n3ncc(C(=O)N4CCSCC4)c3n2)cc1,-7.58
10,CCc1ccc(C2CC(c3ccc(OC)c(OC)c3OC)n3nnnc3N2)cc1 (stereo not drawn),3.32
11,COc1ccccc1CNC(=O)CN(c1ccc(F)cc1)S(=O)(=O)c1ccc2c(c1)OCCO2,1.1
12,COc1ccc(NC(=O)COc2ccc(Cl)cc2)cc1NC(=O)c1ccco1,-9.6
13,Cc1ccc(CNC(=O)Cn2cc(S(=O)(=O)Cc3ccc(F)cc3)c3ccccc32)cc1,1.25
14,CC(C)c1[nH]nc2c1C(c1c[nH]nc1-c1ccc(F)cc1)C(C#N)=C(N)O2 (stereo not drawn),5.48
15,Cc1cccc(NC(=O)c2nc[nH]n2)c1C,-6.07
16,CCCCCC(=O)Nc1cc(OC)ccc1OC,-1.98
17,CCc1ccc(N2C(=O)C(Cl)=C(N3CCCCC3)C2=O)cc1,-1.07
18,COc1ccc(C2c3cc(OC)c(OC)cc3CCN2C(=O)c2ccco2)cc1OC (stereo not drawn),-2.79
19,O=C1c2oc3ccccc3c(=O)c2C(c2ccc(F)cc2)N1CCCN1CCOCC1 (stereo not drawn),3.93
20,COCCN1C(=O)c2ccccc2C(C(=O)NCc2ccccc2OC)C1c1cn(C)c2ccccc12 (stereo not drawn),2.42
21,COCCN1Cc2cccc(C(=O)NCc3ccccc3OC)c2C1=O,-2.29
22,CN(C)CCCNC(=O)C12CC3CC(CC(C3)C1)C2,10.1
23,O=C(O)c1ccc2[nH]c(-c3cc4ccc(O)cc4oc3=O)nc2c1,3.96
24,CCOC(=O)c1cnn2c(C(F)F)cc(C3CC3)nc12,0.0289
